Experimental data published in the supplement of paper PMC4967469.
The IC50 comes from the fitted curve, where viability falls to half of the control; fits outside the tested doses are given as limits. The AUC spans the tested range (256-fold, ending at the top dose) of the same fit; values near 1 show little effect. For some of these results: An inferred top dose is not printed in the source and was worked back from the curve model.

Legend:
Experiment in all cases: Viability of human cancer cell lines after 72 h of drug (GDSC screen)
Bexarotene = compound: C=C(c1ccc(C(=O)O)cc1)c1cc2c(cc1C)C(C)(C)CCC2(C)C [Bexarotene]; details: top dose 8 µM
Method: (§1)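 Human cancer cell lines in 384-well plates, medium with 10% serum, drug for 72 h over a 256-fold dose range (nine 2-fold or five 4-fold steps up to the top dose). Adherent lines were fixed and stained with the nucleic acid dye Syto60, suspension lines read with resazurin; signal relative to control wells, capped at 0 and 100%. One two-parameter sigmoid per drug and line, fitted in a mixed model over all curves with the slope shared within a line.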

NPK76-II-72-1 = compound: COc1cc(C(=O)NC2CCN(C)CC2)ccc1Nc1ncc2c(n1)N(C1CCCC1)C(C)CC(=O)N2C [NPK76-II-72-1]; details: top dose 10.24 µM; top dose inferred
Method: as §1

Etoposide = compound: COc1cc([C@@H]2c3cc4c(cc3[C@@H](O[C@@H]3O[C@@H]5CO[C@@H](C)O[C@H]5[C@H](O)[C@H]3O)[C@H]3COC(=O)[C@H]23)OCO4)cc(OC)c1O [Etoposide]; details: top dose 16 µM
Method: as §1

BMS-345541 = compound: Cc1ccc2nc(NCCN)c3ncc(C)n3c2c1 [BMS-345541]; details: top dose 16 µM
Method: as §1

AZD7762 = compound: NC(=O)Nc1cc(-c2cccc(F)c2)sc1C(=O)N[C@H]1CCCNC1 [AZD7762]; details: top dose 2 µM
Method: as §1

GSK-650394 = compound: O=C(O)c1ccc(-c2c[nH]c3ncc(-c4ccccc4)cc23)cc1C1CCCC1 [GSK-650394]; details: top dose 16 µM; top dose inferred
Method: as §1

XAV 939 = compound: Oc1nc(-c2ccc(C(F)(F)F)cc2)nc2c1CSCC2 [XAV 939]; details: top dose 5 µM; top dose inferred
Method: as §1

Cell Line | AUC (Bexarotene) | IC50 (Bexarotene) | AUC (NPK76-II-72-1) | IC50 (NPK76-II-72-1) | AUC (Etoposide) | IC50 (Etoposide) | AUC (BMS-345541) | IC50 (BMS-345541) | AUC (AZD7762) | IC50 (AZD7762) | AUC (GSK-650394) | IC50 (GSK-650394) | AUC (XAV 939) | IC50 (XAV 939)
AU565 (breast, adherent) | 0.909 | > 8 µM | 0.911 | > 10.2 µM | 0.657 | 2.87 µM | 0.882 | > 16 µM | 0.724 | 0.589 µM | 0.93 | > 16 µM | 0.98 | > 5 µM
BB30-HNC (head and neck, adherent) | 0.884 | > 8 µM | 0.919 | > 10.2 µM | 0.182 | 0.114 µM | 0.859 | 12.8 µM | 0.557 | 0.178 µM | 0.571 | 1.56 µM | 0.923 | > 5 µM
BE-13 (lymphoblastic leukaemia, suspension) | 0.95 | > 8 µM | 0.381 | 0.308 µM | 0.368 | 0.445 µM | 0.79 | 6.64 µM | 0.613 | 0.25 µM | 0.945 | > 16 µM | 0.975 | > 5 µM
BT-474 (breast, adherent) | 0.986 | > 8 µM | 0.964 | > 10.2 µM | 0.955 | > 16 µM | 0.887 | > 16 µM | 0.969 | > 2 µM | 0.986 | > 16 µM | 0.97 | > 5 µM
C2BBe1 (large intestine, adherent) | 0.963 | > 8 µM | 0.984 | > 10.2 µM | 0.928 | > 16 µM | 0.964 | > 16 µM | 0.705 | 0.518 µM | 0.923 | > 16 µM | 0.984 | > 5 µM
CAL-27 (head and neck, adherent) | 0.982 | > 8 µM | 0.891 | > 10.2 µM | 0.846 | 12 µM | 0.836 | 10.9 µM | 0.767 | 0.758 µM | 0.623 | 2.2 µM | 0.908 | > 5 µM
CAL-33 (head and neck, adherent) | 0.955 | > 8 µM | 0.869 | 9.45 µM | 0.427 | 0.631 µM | 0.881 | > 16 µM | 0.635 | 0.296 µM | 0.765 | 5.85 µM | 0.922 | > 5 µM
CAL-62 (thyroid, adherent) | 0.922 | > 8 µM | 0.912 | > 10.2 µM | 0.49 | 0.939 µM | 0.918 | > 16 µM | 0.758 | 0.665 µM | 0.741 | 4.71 µM | 0.958 | > 5 µM
CGTH-W-1 (thyroid, adherent) | 0.933 | > 8 µM | 0.986 | > 10.2 µM | 0.163 | 0.0938 µM | 0.956 | > 16 µM | 0.119 | < 0.00781 µM | 0.606 | 1.95 µM | 0.969 | > 5 µM
CL-11 (large intestine, adherent) | 0.983 | > 8 µM | 0.987 | > 10.2 µM | 0.978 | > 16 µM | 0.974 | > 16 µM | 0.81 | 1.22 µM | 0.986 | > 16 µM | 0.969 | > 5 µM
CP50-MEL-B (melanoma, adherent) | 0.95 | > 8 µM | 0.944 | > 10.2 µM | 0.988 | > 16 µM | 0.926 | > 16 µM | 0.988 | > 2 µM | 0.975 | > 16 µM | 0.983 | > 5 µM
CW-2 (large intestine, adherent) | 0.989 | > 8 µM | 0.971 | > 10.2 µM | 0.98 | > 16 µM | 0.868 | > 16 µM | 0.974 | > 2 µM | 0.989 | > 16 µM | 0.988 | > 5 µM
CaR-1 (large intestine, adherent) | 0.893 | > 8 µM | 0.944 | > 10.2 µM | 0.752 | 7.89 µM | 0.89 | > 16 µM | 0.868 | > 2 µM | 0.936 | > 16 µM | 0.779 | 3.22 µM
DBTRG-05MG (glioma, adherent) | 0.958 | > 8 µM | 0.917 | > 10.2 µM | 0.626 | 2.38 µM | 0.892 | > 16 µM | 0.775 | 0.933 µM | 0.967 | > 16 µM | 0.982 | > 5 µM
DJM-1 (skin, adherent) | 0.928 | > 8 µM | 0.956 | > 10.2 µM | 0.312 | 0.299 µM | 0.936 | > 16 µM | 0.783 | 0.836 µM | 0.948 | > 16 µM | 0.973 | > 5 µM
DOK (head and neck, adherent) | 0.9 | > 8 µM | 0.976 | > 10.2 µM | 0.908 | > 16 µM | 0.879 | > 16 µM | 0.737 | 0.857 µM | 0.976 | > 16 µM | 0.834 | > 5 µM
DoTc2-4510 (cervix, adherent) | 0.933 | > 8 µM | 0.934 | > 10.2 µM | 0.51 | 1.06 µM | 0.895 | > 16 µM | 0.771 | 0.726 µM | 0.842 | 10.4 µM | 0.969 | > 5 µM
ES1 (Ewing sarcoma, adherent) | 0.927 | > 8 µM | 0.695 | 2.23 µM | 0.288 |  | 0.897 | > 16 µM | 0.617 | 0.261 µM | 0.78 | 6.49 µM | 0.983 | > 5 µM
ES6 (Ewing sarcoma, adherent) | 0.885 | > 8 µM | 0.844 | 10.1 µM | 0.849 | > 16 µM | 0.755 | 6.61 µM | 0.669 | 0.417 µM | 0.766 | 7.3 µM | 0.944 | > 5 µM
